Reference: patent publication US20260008746A1, “CATIONIC LIPID COMPOUND WITH HIGH EFFICIENCY, LOW TOXICITY AND STABLE EXPRESSION, AND COMPOSITION COMPRISNG SAME” (HANGZHOU TIANLONG PHARMACEUTICAL CO., LTD, priority 2023, published 2026)
Values joined by “and” are separate entries in the source; they are usually repeats but may differ in a detail not shown here. Equal values may be shown once. For part of these data: At least one read-out could not be matched to a standard name with certainty. For part of these data: At least one structure is not confirmed: it was looked up by name or label, or the drawing left a doubt. Some compounds share one wording; it may come from a single statement. Some entries share one result that the patent states for a list of compounds.

How the values were obtained:
293T cells [1] = assay: Fluorescent detection of Fluc-mRNA (cell transfection efficiency of LNP formulations); assay type: cell-based; conditions: for Multiples (YK-101): RLU of YK-101 / RLU of named substance; for Multiples (YK-108): RLU of YK-108 / RLU of named substance; for Multiples (YK-107): RLU of YK-107 / RLU of named substance; for difference from SM-102 in Fluc-mRNA fluorescence (GraphPad Prism analysis): statistical comparison with SM-102; for fluorescence absorption (pictures, FIG. 7): compared with YK-101 and YK-108
Protocol: Cell recovery and passage: 293T cells were recovered, cultured in a culture dish, and passaged to the required number of cells.
Seeding plate: The cells in the culture dish were digested and counted. Cells were spread in a 96-well plate at 10,000 cells per well and in a 12-well plate at 150,000 cells per well. Cells were cultured overnight until the cells adhered to the wall.
Cell recovery and passage: the method was the same as in Example 3.
Seeding plate: the method was the same as in Example 3.
An LNP formulation containing 0.3 μg of Fluc-mRNA (the carrier components of the LNP formulation were cationic lipid, neutral lipid, structured lipid and polymer-conjugated lipid with a molar ratio of 49:10:39.5:1.5, wherein the cationic lipid was listed in Table 1) was added to the cell culture medium of a 96-well plate, and further incubated for 24 hours. The corresponding reagent was added according to the instructions of the Gaussia Luciferase Assay Kit, and the fluorescence expression intensity of each well was detected by an IVIS fluorescence detection system. This test verified the transfection efficiencies of LNP formulations in cells, see Tables 3-6 for specific test results.

[2] = Determination of particle size and polydispersity index (PDI) of lipid nanoparticles by dynamic light scattering; assay type: physicochemical; conditions: LNP formulation of named cationic lipid/DSPC/cholesterol/DMG-PEG2000 49:10:39.5:1.5; for Particle size (nm): 90° scattering angle, 25° C
Protocol: The cationic lipids listed in Table 1 were dissolved in ethanol with DSPC (AVT (Shanghai) Pharmaceutical Technology Co., Ltd.), cholesterol (AVT (Shanghai) Pharmaceutical Technology Co., Ltd.) and DMG-PEG2000 according to a molar ratio of 49:10:39.5:1.5, respectively, to prepare lipid solution in ethanol. The lipid solution in ethanol was quickly added to citrate buffer (pH=4 to 5) by ethanol injection method, and vortexed for 30 s for later use. eGFP-mRNA (from Shanghai Biohub International Trade Co., Ltd) or Fluc-mRNA (from Shanghai Biohub International Trade Co., Ltd) was diluted in citrate buffer (pH=4 to 5) to give an aqueous mRNA solution. A certain volume of liposome solution and mRNA aqueous solution were used to prepare liposomes at a weight ratio of total lipids to mRNA of 15:1. The mixtures were sonicated at 25° C. for 15 min (with an ultrasonic frequency of 40 kHz and an ultrasonic power of 800 W). The resulting liposomes were diluted to 10 times volume with PBS, and then ultrafiltered with a 300 KDa ultrafiltration tube to remove ethanol. Then the volume was fixed to a certain volume with PBS to give an LNP formulation encapsulating eGFP-mRNA or Fluc-mRNA using cationic lipid/DSPC/cholesterol/DMG-PEG2000 (49:10:39.5:1.5 in molar percentage).
The particle size and polydispersity index (PDI) were determined by dynamic light scattering using Malvern laser particle size analyzer.
10 μL of the liposome solution was weighed, diluted to 1 mL with RNase-free deionized water, and added to the sample pool. Each sample was measured in triplicate. The measurement conditions were: 90° scattering angle, and 25° C.

293T cells [3] = assay: Cell transfection test of LNP formulation of eGFP-mRNA (optimization of preparation conditions); assay type: cell-based; conditions: for results of the ratio optimization compared with YK-108 LNP formulations: b436 carrier:mRNA, b440 cationic:neutral lipid, b444 polymer-conjugated lipid, b448 component proportions, not shown in figures
BALB/C mice = assay: In vivo imaging of Fluc-mRNA expression in mice delivered by LNP formulations; conditions: highest multiple, time point not stated
Protocol: The LNP formulation containing […] Fluc-mRNA was injected intramuscularly into female BALB/C mice aged 4-6 weeks old and weighed 17-19 g, and the mice were intraperitoneally injected with fluorescent imaging substrate at specific time points after administration (6h, 24 h, 48h and 7d), where the mice were allowed to move freely for 5 minutes, and then the average radiation intensity (corresponding to fluorescence expression intensity) of the protein expression of the mRNA carried by the LNP in the mice was detected by the IVIS Spectrum small animal in vivo imaging device. The test results are shown in Tables 11 to 14 and FIGS. 12 to 14.

SMILES	PDI(%) [2] [%]	Particle size (nm) [2] [nm]	difference from SM-102 in Fluc-mRNA fluorescence (GraphPad Prism analysis) (293T cells [1])	further results
CCCCCCCCCCOC(=O)CCCN(CCCCCC(=O)OCCC(CCCCCC)CCCCCC)CCOCCO [YK-123, 3-hexylnonyl 6-(4-(decyloxy)-4-oxobutyl)(2-(2-hydroxyethoxy-ethyl)amino)hexanoate]	–	–	–	Multiples (YK-101) (293T cells [1]): 25.18 and 25; Multiples (YK-108) (293T cells [1]): 30.53 and 31
CCCCCCCCCCOC(=O)CCCN(CCCO)CCCCCC(=O)OCCC(CCCCCC)CCCCCC [YK-102, 3-hexylnonyl-6-(4-(decyloxy)-4-oxobutyl)((3-hydroxypropyl)amino)hexanoate]	19.9	166	no significant difference	Multiples (YK-107) (293T cells [1]): 15.27 and 15
CCCCCCCCCCCOC(=O)CCCN(CCO)CCCCCCC(=O)OCCC(CCCCCC)CCCCCC [YK-108, 3-hexylnonyl 7-(4-(undecyloxy)-4-oxobutyl)((2-hydroxyethyl)amino)heptanoate]	26.5	164	significantly different	transfection (293T cells [3]; cationic lipid:DSPC:cholesterol:DMG-PEG2000 75:5:15:5, 49:10:39.5:1.5, 45:17.5:37:0.5, 40:10:48.5:1.5, 30:10:58.5:1.5 and 25:8:65:2): transfection was accessible; transfection effect (293T cells [3]; molar ratio of DMG-PEG2000 to carrier 0.5% to 10%): transfection effect were all achieved; transfection effect (293T cells [3]; molar ratio of cationic lipid to neutral lipid DSPC 1:1 to 15:1): transfection effect could be achieved; transfection effect (293T cells [3]; molar ratio of cationic lipid to neutral lipid DSPC 3:1 and 4.9:1): good; transfection effect (293T cells [3]; weight ratio of carrier to mRNA 5:1 and 35:1): poor; transfection effect (293T cells [3]; weight ratio of carrier to mRNA 10:1 to 30:1): good
CCCCCCCCC(CCCCCCCC)COC(=O)CCCCCN(CCO)CCCCCC(=O)OCCCSSCCCCC [YK-111]	14.1	144	–	–
CCCCCCCCC(CCCCCCCC)OC(=O)CCCCCCCN(CCO)CCCCCCCC(=O)OCCC(CCCCCC)CCCCCC [Compound 21, 9-heptadecyl 8-(8-((3-hexylnonyl)oxy)-8-oxoctyl)-((2-hydroxyethyl)amino)octoate, reference compound]	–	–	–	expression amount of mRNA in mice of YK-108, times that of named substance (BALB/C mice): ≤ 12 times
CCCCCCC(CCCCCC)CCOC(=O)CCCCCN(CCO)CCCCCC(=O)OCCCSSCCCCC [YK-110]	24.9	150	significantly different	–
CCCCCCCCCCOC(=O)CCCN(CCCCCC(=O)OCCC(CCCCCC)CCCCCC)C1CCCC1O (stereo not drawn) [YK-120, 3-hexylnonyl 6-(4-(decyloxy)-4-oxobutyl)((2-hydroxycyclopentyl)amino)hexanoate]	29.7	142	–	–
CCCCCCCCCCOC(=O)CCCN(CCCCCC(=O)OCCC(CCCCCC)CCCCCC)C[C@H](C)O [YK-117, 3-hexylnonyl 6-(4-(decyloxy)-4-oxobutyl)(((S)2-hydroxypropyl)amino)hexanoate]	19.2	187	–	–
CCCCCCCCCCOC(=O)CCCN(CCO)CCCCCC(=O)OCCC(CCCCCC)CCCCCC [YK-101, 3-hexylnonyl-6-(4-(decyloxy)-4-oxobutyl)((2-hydroxyethyl)amino)hexanoate]	22.4	191	significantly different	results of the ratio optimization compared with YK-108 LNP formulations (293T cells [3]): same results
CCCCCCC(CCCCCC)CCOC(=O)CCCCCN(CCO)CCCCCC(=O)OCCSCCCC [YK-112, 3-hexylnonyl-6-(6-(2-(butylthio)ethoxy)-6-oxohexyl)((2-hydroxyethyl)amino)hexanoate]	23.1	147	significantly different	Multiples (YK-101) (293T cells [1]; listed as YK-23): 10106.95; Multiples (YK-107) (293T cells [1]; listed as YK-23): 11113.92; Multiples (YK-108) (293T cells [1]; listed as YK-23): 12256.71; fluorescence absorption (pictures, FIG. 7) (293T cells [1]): very weak
CCCCCCCCCCOC(=O)CCCN(CCCO)CCCCCC(=O)OCC(CCCCCCCC)CCCCCCCC [YK-107, 2-octyldecyl 6-(4-(decyloxy)-4-oxobutyl)((3-hydroxypropyl)amino)hexanoate]	22.8	96	significantly different	results of the ratio optimization compared with YK-108 LNP formulations (293T cells [3]): same results
CCCCCCCCCCOC(=O)CCCN(CCCCCC(=O)OCCC(CCCCCC)CCCCCC)CCOCCOCCO [YK-121, 3-hexylnonyl 6-(4-(decyloxy)-4-oxobutyl)(2-(2-(2-hydroxyethoxy)ethoxy-ethyl)amino)hexanoate]	–	–	–	Multiples (YK-101) (293T cells [1]): 47.56 and 47; Multiples (YK-108) (293T cells [1]): 57.67 and 58
CCCCCCC(CCCCCC)CCOC(=O)CCCCCCCN(CCO)CCCCCCCC(=O)OCCC(CCCCCC)CCCCCC [Compound 23, bis(3-hexylnonyl)-8, 8′-((2-hydroxyethyl)azadialkyl)dioctanoate, reference compound]	–	–	–	expression amount of mRNA in mice of YK-108, times that of named substance (BALB/C mice): ≤ 12 times
CCCCCCCCCC(=O)OCCCCN(CCO)CCCCCC(=O)OCCC(CCCCCC)CCCCCC [YK-109]	–	–	–	Multiples (YK-101) (293T cells [1]): 28 and 28.34; Multiples (YK-107) (293T cells [1]): 31 and 31.17; Multiples (YK-108) (293T cells [1]): 34 and 34.37
CCCCCCCCCCOC(=O)CCCN(CCCCCC(=O)OCCC(CCCCCC)CCCCCC)CCC(C)O (stereo not drawn) [YK-118, 3-hexylnonyl 6-(4-(decyloxy)-4-oxobutyl)((3-hydroxybutyl)amino)hexanoate]	23.2	187	significantly different	–
CCCCCCCCC(CCCCCCCC)COC(=O)CCCCCN(CCO)CCCCCC(=O)OCCSCCCC [YK-113, 2-octyldecyl 6-(6-(2-(butylthio)ethoxy)-6-oxohexyl)((2-hydroxyethyl)amino)hexanoate]	10.4	147	significantly different	–
CCCCCCCCCCOC(=O)CCCN(CCCCCC(=O)OCCC(CCCCCC)CCCCCC)CCC(C)(C)O [YK-119, 3-hexylnonyl 6-(4-(decyloxy)-4-oxobutyl)((3-hydroxy-3-methylbutyl)amino)hexanoate]	41.3	98	significantly different	fluorescence absorption (pictures, FIG. 7) (293T cells [1]): very weak
CCCCCCCCCCOC(=O)CCCN(CCO)CCCCC(=O)OCCC(CCCCCC)CCCCCC [YK-104]	–	–	–	Multiples (YK-101) (293T cells [1]): 12.01 and 12
CCCCCCCCCCOC(=O)CCCN(CCCCCC(=O)OCCC(CCCCCC)CCCCCC)CC(O)CO (stereo not drawn) [YK-114, 3-hexylnonyl 6-(4-(decyloxy)-4-oxobutyl)((2,3-dihydroxypropyl)amino)hexanoate]	29.5	112	–	–
CCCCCCCCCCOC(=O)CCCN(CCCCCC(=O)OCCC(CCCCCC)CCCCCC)CCOC(=O)CCCN(C)C [YK-125]	–	–	–	Multiples (YK-101) (293T cells [1]): 119.74 and 120; Multiples (YK-108) (293T cells [1]): 145.21 and 145
CCCCCCCCCCOC(=O)CCCN(CCCCCC(=O)OCCC(CCCCCC)CCCCCC)C[C@H](O)CO [YK-116, 3-hexylnonyl 6-(4-(decyloxy)-4-oxobutyl)(((S)-2,3-dihydroxypropyl)amino)hexanoate]	14.3	143	–	–
